Measurements from the supplement of paper PMC9334596.
Where “and” joins values, the source holds several entries; their conditions need not be identical. Identical values can stand only once. The full ranking holds about 5,300 compounds; the median of “PER2::LUC luminescence relative to vehicle control” is about 0.96, and the highest 2% start at about 1.3. This is one part of the list.

Test system: mPer2Luc MEF
Experiment: PER2::LUC luminescence relative to vehicle control (fold of vehicle); higher = higher PER2::LUC reporter signal
Settings: 10 µM
Outline: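 The value is PER2::LUC luminescence expressed as fold of vehicle control. Mouse embryonic fibroblasts carrying the mPer2Luc reporter were seeded at ~3000 cells per well in 384-well plates and grown in DMEM with 10% FBS at 37 °C and 5% CO2. Compounds from commercial libraries were added at 10 μM 48 h after seeding, and luminescence was read with the ONE-Glo luciferase assay system 24 h and 30 h after treatment, followed by an alamarBlue viability assay.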

Structure (SMILES) | PER2::LUC luminescence (time after treatment 24 h) | PER2::LUC luminescence (time after treatment 30 h)
COc1ccc2c3c([nH]c2c1)C(C)=NCC3 | 0.894 | 0.968
C[C@@H](N)Cc1cnc[nH]1 | 1.02 and 0.942 | 1.03 and 0.837
Cc1cc(O)c2c(=O)c3c(O)cc(O)c4c5c(O)cc(O)c6c(=O)c7c(O)cc(C)c8c1c2c(c34)c(c78)c65 | 1 | 0.956
[N-]=[N+]=CC(=O)OC[C@H](N)C(=O)O | 0.86 | 0.969
Cc1nc(N)sc1CCN | 0.98 | 1.03
C[N+]1([O-])[C@@H]2CC[C@H]1C[C@@H](OC(=O)C(CO)c1ccccc1)C2 (some centres not stated) | 1 and 1.01 | 0.993 and 0.843
NCCCP(=O)(O)CC1CCCCC1 | 1.02 | 1.02
O=C(O)CCCCCCNC1c2ccccc2CCc2ccccc21 | 1.03 | 0.973
NCC(O)c1ccc(O)cc1 (racemic) | 0.998 and 1.02 | 1.12 and 0.951
N=C1NC(=O)N2CC12 (configuration not stated) | 0.838 | 1.14
CC[C@@H](c1cccc(O)c1)[C@@H](C)CN(C)C | 0.899 | 0.879
CN(C(=O)Cc1ccc(Cl)c(Cl)c1)C(CN1CCCC1)c1cccc(OCC(=O)O)c1 (configuration not stated) | 0.985 | 0.782
NCCc1ccc(O)cc1 | 1.03 and 0.947 | 0.942 and 0.934
CN(C)C(=O)Oc1cc(OC(=O)N(C)C)cc(C(O)CNC(C)(C)C)c1 (configuration not stated) | 0.917 | 0.877
CCn1cc(C(=O)O)c(=O)c2cc3c(cc21)OCO3 | 0.916 | 1.04
C[C@]12CC[C@H](O)C[C@@H]1CC[C@@H]1[C@@H]2CC[C@]2(C)C(=O)CC[C@@H]12 | 0.895 | 0.872
C[N+]1(C)[C@@H]2C[C@@H](OC(=O)[C@H](CO)c3ccccc3)C[C@H]1[C@@H]1O[C@@H]12 | 1.08 and 0.885 and 0.502 | 1.04 and 0.844 and 1.09
C[C@@H]1OC(=O)[C@H]2C[C@H]3CCCC[C@@H]3[C@@H](/C=C/[C@H]3CCC[C@H](C)N3C)[C@@H]12 | 0.807 | 0.884
CC1=C[C@]23C(=O)[C@@H](C=C(CO)[C@@H](O)[C@]2(O)[C@H]1O)[C@H]1[C@@H](C[C@H]3C)C1(C)C | 0.981 | 0.957
CC(C)C[C@H](NC(=O)[C@H](Cc1ccccc1)NC(=O)CNC(=O)[C@@H](CO)NC(=O)[C@@H](N)Cc1ccc(O)cc1)C(=O)N[C@H](C(=O)O)[C@@H](C)O | 1.02 | 1.01
C[C@H](Cc1ccc2c(c1)OC(C(=O)O)(C(=O)O)O2)NC[C@H](O)c1cccc(Cl)c1 | 0.982 | 0.881

Structure (SMILES) | PER2::LUC luminescence (time after treatment 24 h) | PER2::LUC luminescence (time after treatment 30 h)
CCC1(c2ccc(N)cc2)CCC(=O)NC1=O (configuration not stated) | 0.877 | 1.03
C[N+]1(C)CCN(c2ccccc2)CC1 | 0.844 | 0.997
NC(=O)COc1c(F)cc(SCCNS(=O)(=O)c2ccccc2)cc1F | 0.994 | 0.795
CCCN1CCC[C@H](c2cccc(O)c2)C1 | 1.02 | 0.848
CC[C@@]1([C@@H]2O[C@@H]([C@H]3O[C@@](O)(CO)[C@H](C)C[C@@H]3C)C[C@@H]2C)CC[C@H]([C@]2(C)CC[C@]3(C[C@H](O)[C@@H](C)[C@@H]([C@@H](C)[C@@H](OC)[C@H](C)C(=O)O)O3)O2)O1 | 0.255 | 0.203
CCN(C)C(=O)Oc1cccc([C@H](C)N(C)C)c1 | 1.1 and 0.692 | 1.22 and 0.879
CC(=O)C1CCC2C3CCC4C[C@H](O)CCC4(C)C3C[C@H](O)C12C (some centres not stated) | 0.95 | 0.944
O=[N+]([O-])c1cc([As](=O)(O)O)ccc1O | 1.08 | 1.54
COc1ccc2c(c[n+](C)c3c4cc5c(cc4ccc23)OCO5)c1OC | 0.221 | 0.264
Cc1c(Cl)cccc1S(=O)(=O)Nc1nc(CC(=O)N2CCN(C)CC2)cs1 | 0.98 | 1.02
CCN1C[C@]2(COC(=O)c3ccccc3N3C(=O)C[C@H](C)C3=O)CC[C@H](OC)[C@@]34[C@@H]5C[C@H]6[C@H](OC)[C@@H]5[C@](O)(C[C@@H]6OC)[C@](O)([C@@H](OC)[C@H]23)[C@@H]14 | 0.723 | 0.947
C[C@]12C=CC(=O)C=C1CC[C@@H]1[C@@H]2CC[C@]2(C)C(=O)CC[C@@H]12 | 0.808 | 0.817
CCN1C[C@]2(OC(=O)c3ccccc3NC(C)=O)CC[C@H](OC)[C@@]34[C@@H]2C[C@@H]([C@@H]13)[C@@]1(O)C[C@H](OC)[C@H]2C[C@@H]4[C@]1(O)[C@H]2OC | 0.983 | 0.939
CC(=O)CC1CCCCN1 (configuration not stated) | 1.07 | 1.09
CCN1C[C@]2(COC)[C@H](O)C[C@H](OC)[C@@]34[C@@H]5C[C@@]6(O)[C@H](OC(=O)c7ccccc7)[C@@H]5[C@@](OC(C)=O)([C@@H]([C@H](OC)[C@H]23)[C@@H]14)[C@@H](O)[C@@H]6OC | 0.896 | 0.934
CC(C)(Cc1c[nH]c2ccc(Cl)cc12)NCCOc1ccccc1OCC1CC1 | 0.692 | 0.719
O=c1[nH]c2ccccc2n1C1CCN(Cc2ccc(-c3[nH]c4cc5ncnc5cc4nc3-c3ccccc3)cc2)CC1 | 0.456 | 0.497
C[C@H]1O[C@@H](C[N+](C)(C)C)CS1 | 0.999 | 0.782
Cc1ccc(C[N+](C)(C)C)o1 | 0.969 | 1.03
CCCN1CCc2cccc3c2[C@H]1Cc1ccc(O)c(O)c1-3 | 0.856 | 0.747
C[C@]12CC[C@@H]3c4ccc(OC(=O)N(CCCl)CCCl)cc4CC[C@H]3[C@@H]1CC[C@@H]2O | 0.908 | 0.795

Structure (SMILES) | PER2::LUC luminescence (time after treatment 24 h) | PER2::LUC luminescence (time after treatment 30 h)
C=C1[C@H]2C[C@@]3([C@@H]1O)[C@@H](CC2=O)[C@]12[C@@H]4C[C@H]3[C@H]1N(CC)C[C@]4(C)CC[C@@H]2O | 1 | 0.997
COc1ccc(O)c(C(C)(C)C)c1.COc1ccc(O)cc1C(C)(C)C | 0.868 | 1.18
CCCN(CCC)C1CCc2cccc(O)c2C1 (configuration not stated) | 0.923 | 1.02
C=CCc1cc(OC)c2c(c1)OCO2 | 1.1 | 1.14
COc1ccc(C(=O)OC2CC3CCC(C2)N3C)cc1OC (configuration not stated) | 0.888 | 0.897
C[C@]12N[C@H](Cc3ccccc31)c1ccccc12 | 1.02 and 0.951 | 1.08 and 0.93
C[N+]1([O-])[C@@H]2C[C@@H](OC(=O)[C@H](CO)c3ccccc3)C[C@H]1[C@@H]1O[C@@H]12 (some centres not stated) | 0.975 | 1.04
NCCc1ccccn1 | 0.99 | 1.45
CCNC(=O)C[C@H]1N=C(c2ccc(Cl)cc2)c2cc(OC)ccc2-n2c(C)nnc21 | 1.05 | 1.02
CO[C@@H]1C[C@@H](C[C@H]2CC[C@H](C)[C@H]([C@@H](C)C(=O)O)O2)O[C@]2(O[C@](C)([C@H]3CC[C@@](C)([C@@H]4O[C@@H]([C@H]5O[C@@](O)(CO)[C@H](C)C[C@@H]5C)C[C@@H]4C)O3)C[C@H]2C)[C@@H]1C | 0.479 and 0.364 | 0.433 and 0.327
COC1=CC(=O)O[C@@H](CCc2ccc3c(c2)OCO3)C1 | 0.859 | 0.763
CCC(=O)CCCCC[C@@H]1NC(=O)[C@H]2CCCCN2C(=O)[C@H]([C@@H](C)CC)NC(=O)[C@H](Cc2cn(OC)c3ccccc23)NC1=O | 1.09 | 1.1
CCN(CC)C(C)C(=O)c1ccccc1 (configuration not stated) | 1.07 | 1.11
CCC1(O)C(=O)OCc2c1cc1n(c2=O)Cc2cc3ccccc3nc2-1 (configuration not stated) | 0.427 | 0.351
O=C1CCCN1CC#CCN1CCCC1 | 1.17 | 1.08
c1cncc([C@@H]2CCCN2)c1 | 0.795 | 0.811
CC1(C)C(C=C(Cl)Cl)C1C(=O)OC(C#N)c1cccc(Oc2ccccc2)c1 (configuration not stated) | 1.06 | 1.1
Oc1cc(Cl)ccc1Oc1ccc(Cl)cc1Cl | 0.979 | 0.849
CCCN(CCC)C1CCc2ccc(O)cc2C1 (configuration not stated) | 0.975 and 0.96 | 1.04 and 0.898
c1ccc(C2(c3ccccc3)CC2C2=NCCN2)cc1 (configuration not stated) | 0.894 | 0.805
C/C=C1\C[C@@H](C)[C@](O)(CO)C(=O)OCC2=CCN3CC[C@@H](OC1=O)[C@@H]23 | 1.01 | 0.958

Structure (SMILES) | PER2::LUC luminescence (time after treatment 24 h) | PER2::LUC luminescence (time after treatment 30 h)
CC1=C2[C@H]3OC(=O)[C@@H](C)[C@@H]3CC[C@@]2(C)C=CC1=O | 0.962 | 0.964
CCC(N)C(O)c1ccc(O)c(O)c1 (configuration not stated) | 1.2 and 0.593 | 0.876 and 0.965
C[C@](O)(COc1ccc(C#N)cc1)C(=O)Nc1ccc(C#N)c(C(F)(F)F)c1 | 1.12 and 1.15 | 0.984 and 1.16
CN1C[C@H](CO)C=C2c3cccc4[nH]cc(c34)C[C@H]21 | 1.03 | 0.981
CC(N)Cc1c[nH]c2ccc(O)cc12 (configuration not stated) | 1.09 | 1.16
CN(N=O)c1cc(O)ccc1O | 1.02 | 1.27
C[C@H]1CCC[C@H](O)CCCCCc2cc(O)cc(O)c2C(=O)O1 | 0.833 | 0.805
COc1ccc(CCN2CCC(Nc3nc4ccccc4n3Cc3ccc(F)cc3)CC2)cc1 | 0.334 | 0.157
Cc1c([C@H](C)[C@@H]2NC[C@@H](C)C[C@H]2O)ccc2c1C[C@H]1[C@H]2CC=C2C[C@@H](O)CC[C@@]21C | 0.905 | 0.795
CC(=O)O[C@H]1C[C@H](O[C@H]2[C@@H](O)C[C@H](O[C@H]3[C@@H](O)C[C@H](O[C@H]4CC[C@@]5(C)[C@H](CC[C@@H]6[C@@H]5C[C@@H](O)[C@]5(C)[C@@H](C7=CC(=O)OC7)CC[C@]65O)C4)O[C@@H]3C)O[C@@H]2C)O[C@H](C)[C@H]1O[C@@H]1O[C@H](CO)[C@@H](O)[C@H](O)[C@H]1O | 1.08 | 1.16
CC(=O)Nc1ccc(OC[C@](C)(O)C(=O)Nc2ccc([N+](=O)[O-])c(C(F)(F)F)c2)cc1 | 1.17 | 1.24
CC(CN)CC(=O)O (configuration not stated) | 0.986 | 1.06
COC(=O)C1=CCCN(C)C1 | 0.965 and 0.876 and 0.727 | 0.962 and 0.933 and 0.874
Fc1ccc(C(OCCN2CCN(CCCc3ccccc3)CC2)c2ccc(F)cc2)cc1 | 0.59 and 0.26 | 0.539 and 0.22
N[C@@H](CCl)C(=O)O | 0.956 | 0.934
CC(C)(C)NCC(O)c1cc(Cl)c(N)c(Cl)c1 (configuration not stated) | 0.906 | 0.859
COc1cc2c(cc1OC)[C@@]13CCN4CC5=CCO[C@H]6CC(=O)N2[C@H]1[C@H]6[C@H]5C[C@H]43 | 1.15 and 0.445 | 1.09 and 0.871
CC(C)(c1ccc(OCC2CO2)cc1)c1ccc(OCC2CO2)cc1 (configuration not stated) | 0.988 | 0.942
